Results taken from the supplement of paper PMC11417369.
± gives the standard deviation of the averaged measurements. The list shows a part of the results.

Each sequence was assayed on PfAP2-LT AP2 domain (GST-tagged) (assay: gcPBM binding intensity (ln(normalized median fluorescence intensity)); higher = stronger DNA binding).
Procedure, shortened: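 DNA-binding domains from P. falciparum, fused to GST and produced in E. coli, were put on an Agilent 4 × 180k double-stranded probe array for 1 h in 1× PBS holding 1% milk, 0.2 mg/ml BSA, 0.5% salmon testes DNA and 0.03% Triton X-100. Probes were primer-extended, 36 bp long and drawn from intergenic genomic regions, with negative controls included. After Alexa488 anti-GST antibody detection and a 488 nm scan, binding intensity was set as the highest Masliner-normalised natural-log median intensity across replicate spots of either probe orientation.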

Sequence | gcPBM binding intensity (ln)
AAAAAAAAATATATATAAAATTAAAAAATGTAATAT [GTGCAC_negctrl_site581] | 8.62 ± 0.49
ATGGGTTGTTCAAATAGTACATATGTAGCCCACCAT [XGTACX_site3735] | 8.93 ± 0.39
ATTAAAAAAAAAAGTATACACACTTCTTAATGTCAA [CACACA_site1244] | 8.64 ± 0.35
TTATATCCCGTCCTTTATTAAAAAAATTTTTTTTCT [TGCATGCA_negctrl_site582] | 8.59 ± 0.52
AAAAAAGAATAGCACACACACATATATAAATATAAA [CACACA_site4518] | 9.69 ± 0.16
TTTTTTTTTTTTTGTGCATGTAGATTTATTGTTATA [TGCATGCA_site582] | 8.79 ± 0.39
TTTAAATATATATTTAGTACTTATTCTTAAAATTTT [XGTACX_site624] | 8.38 ± 0.5
AATTATACATACATATATATATTTATATATATATAT [GTGCAC_negctrl_site462] | 8.89 ± 0.39
GTAGAGGATTAAGAATGTACACATAAATACATATTT [XGTACX_site8874] | 8.8 ± 0.59
GTTACATACAGATACACACACATATATATATATATA [CACACA_site4652] | 10.2 ± 0.4
TTTTTTTTTTTTTTAATTAATTACCTTTGAATGTGT [CACACA_negctrl_site393] | 8.64 ± 0.57
TAATAATTTTATAAAGTGCATAAAAATAAAAATTTT | 8.42 ± 0.51
AACAAATAAACAAAATTGGAAAATAAAAATATCAAA [CACACA_negctrl_site1125] | 8.69 ± 0.47
TCGTATATGGATTTTGCACACAATTTTAATTTAAAT [CACACA_site4635] | 9.1 ± 0.4
ATGATTTGTCTGAAATGTACATATATATATATATAT [XGTACX_site5247] | 9.535 ± 0.021
GAAAAAATATATAAATGTACATATAATAATATCATA [XGTACX_site6788] | 8.82 ± 0.47
ATATATATTTTATTATGTACATATAAATATTACACA [XGTACX_site4062] | 8.7 ± 0.42
ATTATTTTTTTATGTTGTACATAATATTTTTTAAAA [XGTACX_site1666] | 8.54 ± 0.45
ATATATATGGATGGACGTACGTATGTATGTAATTTC [XGTACX_site4135] | 9.26 ± 0.36
TAATATTTATAAAATAGTACACAGAAAAAGCATTTT [XGTACX_site8948] | 8.62 ± 0.52
CTTAAAAATAACTGCACACAAAAATAAATACCTTAT [CACACA_site2793] | 9.12 ± 0.3
TTCCAACATTGTTTTTGTACATAATTAACTGTTATT [XGTACX_site5224] | 8.96 ± 0.39
TAGGAAAAGAAAAGCACACACATAAATAGATATATA [CACACA_site6382] | 9.43 ± 0.54

Sequence | gcPBM binding intensity (ln)
ATATATATATATATATATATAATTTTTTTTGTTTTT [TGCATGCA_negctrl_site453] | 9.91 ± 0.42
GATATCAAAAAGATGGGTACATATATTTAAGTTCAT [XGTACX_site3822] | 8.76 ± 0.49
TATATTATTAATTAGGGTACAAAAAAAAAATTTTTT [XGTACX_site7762] | 8.3 ± 0.48
TTTTGAAAAAGTTGCACACAAAATTTAAAAAAAAAA [CACACA_site1632] | 8.72 ± 0.5
TTAAATAGAAATAAGACTAACAATGAACCAAAAAAA [CACACA_negctrl_site991] | 8.79 ± 0.5
CTTAAAAAAACCTTAACACACATAAACTATAATTTA [CACACA_site3055] | 8.65 ± 0.4
TTTTCATTTGAAAGTCGTACAAGTTCGAAAAAAGGA [XGTACX_site6840] | 8.79 ± 0.47
ATATTATATATATGTGCACACAAAAGATATATATAT [CACACA_site2125] | 9.91 ± 0.27
ATAAGCAATAAAAAAACATGCATATTATTATCAACA [TGCATGCA_site1027] | 8.85 ± 0.45
TGCAACAAAATAAACACACACACACTAACACAAAAA [CACACA_site7567] | 9.98 ± 0.33
TTTAAAAATAAAAGTACACACATAAACATATTGCAC [CACACA_site6784] | 9 ± 0.33
ATCAAGCACGGACACACACACACACCCAGACCCCCA [CACACA_site4360] | 10.19 ± 0.099
AAGTTAACACAACAGGTGCAAGAAAAGTTTTTAATG | 8.77 ± 0.45
TATGGTATATACAACACACACACATATGTATATATA [CACACA_site927] | 9.62 ± 0.44
TCTTTAATATATAGTGCATGTAAATTTTACAATAAT [TGCATGCA_site242] | 8.52 ± 0.36
AGTTAATGTTTATGTACACACGGTGGGTATATATTT [CACACA_site5785] | 9.18 ± 0.35
TATACATTTATGTACACACACATATAGGTATATTTA [CACACA_site7408] | 9.09 ± 0.33
AAAATATAATATATTACACACATATATTTTATAAGT [CACACA_site668] | 8.96 ± 0.39
TATATACATTTATATACACACCTATATTTATTTATA [CACACA_site7014] | 8.82 ± 0.49
ATTATATATATTTATGCACACAAAATATATTATATA [CACACA_site9244] | 8.78 ± 0.32
TTTTTTTAACGGTGTGCACACAATATACAGAAAAAA [CACACA_site1415] | 9.23 ± 0.48
TATATTGAAAATAAAACATGCAATCACTCATACATA [TGCATGCA_site248] | 8.76 ± 0.28
CAACAATTTCGTCATACACACATTCAGAATCTATAT [CACACA_site7171] | 8.97 ± 0.42

Sequence | gcPBM binding intensity (ln)
ATGTACCTATTTCATACACACACACCCACAAACAAA [CACACA_site8232] | 9.66 ± 0.16
CAAAAAAGTAAAACGTGTACATATATACATAAAAAT [XGTACX_site5639] | 9.22 ± 0.43
TACGTAATAATATGCACACAAATAAACTTTATAAAT [CACACA_site3501] | 9.11 ± 0.42
TTTAAACGTTATATAGTGCATGTCATATTTTATTAT | 8.85 ± 0.42
CTTTTTTATATCTCTACACACATTTATAACAATTTG [CACACA_site1398] | 9.03 ± 0.46
TATGTTGGTTCTTTTAGTACATAATTACTAAATGTA [XGTACX_site8616] | 8.71 ± 0.42
CAAACTACAAAATTTCGTACGCATATATTTCAAGTA [XGTACX_site5154] | 8.74 ± 0.43
AAAACATACATATATACACACATATATATATATATA [CACACA_site1852] | 9.97 ± 0.53
TATAAAAAATAAAATACACACACATATATATATATA [CACACA_site8365] | 9.74 ± 0.28
TAATTTCTTATGTGCTATCTTATATAGAATTAATTT [CACACA_negctrl_site1726] | 8.53 ± 0.51
TGCACAAAATTATGCACACACCTAAAATTAATTTTT [CACACA_site5596] | 9.06 ± 0.34
GGCAATGATTTTAGGTGTACTTAAAAATCAAATTAA [XGTACX_site8587] | 8.47 ± 0.53
ATTCTAATCATATACACACCCATATATATATATATA [CACACA_site1774] | 9.87 ± 0.29
TATATATTAATATGCACACACAAGAAGTAATTATAA [CACACA_site3193] | 9.34 ± 0.37
ATTATATAACAAAATAGTACATATATTTATTACATC [XGTACX_site336] | 8.57 ± 0.4
AAAAAAAAAATTTAGGTGCATACAAATAAATTATAT [GTGCAC_site9521] | 8.65 ± 0.59
AGCAGTCAGCAGGACAGTACACAGTAGCCAGGAAAT [XGTACX_site4877] | 9.28 ± 0.52
TTATTCTAAAAAGGGTGTACACAAACGAATGGAAAA [XGTACX_site5662] | 8.99 ± 0.38
ATGGCTAAAAGTTGCACACACACAAAAAAAAAAAAA [CACACA_site3289] | 9.52 ± 0.49
AAAATTATTTAGTAAGTGCAAAAAAAAAAAAAAAAA | 8.53 ± 0.66
AATTTGATTATAAATTGTACATATATATATTAAAAG [XGTACX_site5461] | 8.66 ± 0.35
ATTGTTAAATATAATACACACGTTTTTAAAAATATA [CACACA_site5239] | 8.72 ± 0.42
TAAAAATAAATAAATACATGCACCAAAAATAAATTT [TGCATGCA_site801] | 8.9 ± 0.42

Sequence | gcPBM binding intensity (ln)
ATTGCCATTGTTAATGCATGTAACAATTCAGCTCAT [TGCATGCA_site56] | 8.8 ± 0.43
TAATTGTACACATGCACACACAAATATTATAGATGT [CACACA_site6528] | 9.47 ± 0.34
TGTATAACATTTAGGTGTACAATTATATATAATATA [XGTACX_site8131] | 8.57 ± 0.4
TTGAGAAAAATTAATGGTACACATATTATAAGTATA [XGTACX_site6539] | 8.74 ± 0.45
TGACATATTATTAGGTGGTCACGTCTCCACGTCAAG [XGTACX_site7943] | 8.69 ± 0.48
AAGAAAAAAAAAAAAACACACATATATTTATTTATA [CACACA_site7042] | 8.49 ± 0.54
TATACACATAGACACACACACAAAAAAAAAAAAAAA [CACACA_site6338] | 9.68 ± 0.59
GAAAGAAAAAATGATGAATAGAGATCAAATCTATAT [XGTACX_negctrl_site28] | 8.66 ± 0.52
TAAAAATTTGATCAAACACACGTTGCATAAATTATA [CACACA_site6040] | 8.77 ± 0.34
AGGCTATAATACCATACACACATTTATAAAATAACA [CACACA_site6990] | 9.07 ± 0.42
ACATATATTTATATATGTACATATGATATATACATA [XGTACX_site6122] | 8.71 ± 0.36
CTTTTGTATATTATATGTACACACAATAAGTTAATA [XGTACX_site1684] | 8.84 ± 0.38
TTTTTGTAAACCTACTTCATAATTATTTATATCTAT [XGTACX_negctrl_site599] | 8.64 ± 0.56
TTAAAAAACATTTGAACATGCAATTGTATATGTAGA [TGCATGCA_site334] | 8.63 ± 0.45
TGAAATTAAATATATACACACATATATATTTATATG [CACACA_site3516] | 8.78 ± 0.4
AAACAAAAGGAAAACATATATATATTAAATGTATAT [CACACA_negctrl_site1663] | 8.86 ± 0.5
ATTTAGAATGTTCCTACACACCAAATTTAAGGGTGC [CACACA_site5320] | 8.94 ± 0.49
ATTACAAATTCTTTCAGTACATATAAAGAAAAAAAT [XGTACX_site7786] | 8.62 ± 0.42
TTTTTTTTTCTCCATACACACTTGATAAAACTTTTT [CACACA_site4512] | 8.54 ± 0.55
ATTTATATTCCAATATGTACATATTTTCGTATAACC [XGTACX_site8507] | 9.06 ± 0.47
